Laboratory results taken from PubChem BioAssay AID1030 (National Center for Advancing Translational Sciences (NCATS), 2008).
About 16,000 (7.3%) of roughly 220,000 compounds were called active. This list was built around the results that the source calls inconclusive (neither active nor inactive); the mix of calls is not that of the screen. The call rests on the fitted dose curve; in most records, active means well fitted inhibition curve with a large enough effect (not every such curve was filed as active); inconclusive means small, poorly fitted or top-dose-only effect, or another doubt; inactive means no such curve, though single readings can be large or run the other way. No potency is given beside an inconclusive call; the fits are too rough.

biological target: Aldehyde dehydrogenase 1A1 (Homo sapiens) (UniProt P00352); assay: qHTS Assay for Inhibitors of Aldehyde Dehydrogenase 1 (ALDH1A1); settings: Purified ALDH1A1, NADH fluorescence, propionaldehyde substrate; series mostly up to 75.3 µM; activity, negative = inhibition: at the top concentration;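 on activity, negative = inhibition: plate controls were no enzyme wells and a reference inhibitor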
Potency means the concentration at half of the fitted maximal effect; tags describe the fitted curve by direction and shape.

Chain of UniProt P00352 (P00352 whole entry, looked up): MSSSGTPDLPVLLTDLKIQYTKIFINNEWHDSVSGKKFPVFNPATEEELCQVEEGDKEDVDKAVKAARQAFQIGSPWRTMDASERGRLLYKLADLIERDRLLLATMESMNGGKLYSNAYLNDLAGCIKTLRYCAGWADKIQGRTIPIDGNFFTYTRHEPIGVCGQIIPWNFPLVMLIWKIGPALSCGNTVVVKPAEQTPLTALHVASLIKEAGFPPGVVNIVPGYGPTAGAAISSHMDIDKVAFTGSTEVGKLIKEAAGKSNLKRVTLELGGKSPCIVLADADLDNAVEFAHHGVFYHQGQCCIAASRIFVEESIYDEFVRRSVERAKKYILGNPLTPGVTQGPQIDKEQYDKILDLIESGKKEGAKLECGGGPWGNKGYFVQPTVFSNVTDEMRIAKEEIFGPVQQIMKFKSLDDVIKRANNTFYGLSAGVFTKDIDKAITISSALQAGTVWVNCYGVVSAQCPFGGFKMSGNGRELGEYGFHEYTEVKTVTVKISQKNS

Structure (SMILES)	activity, negative = inhibition	Potency
Cc1ccc2oc(-c3ccccc3)nc2c1	inactive: 5.31%	–
CCOc1cccc(C(=O)NC(c2ccccc2)C(C)C)c1 (stereo unspecified)	–	inconclusive [inhibitor, partial curve]
COC(=O)c1cc(NC(=O)CSC2=NCCS2)cc(C(=O)OC)c1	–	active: 12.6 µM
Cc1cc(C2=NNC(=Nc3ccc(S(=O)(=O)N4CCOCC4)cc3)SC2)c(C)n1CC1CCCO1 (stereo unspecified)	–	inconclusive [inhibitor, single point]
O=C(c1cccc(COCC(F)(F)C(F)F)c1)N1CCN(c2ccccc2)CC1	–	inconclusive [inhibitor, partial curve]
CCN1CCN(c2ccc(NC(=O)c3cnccn3)cc2)CC1	inactive: -1.42%	–
COc1ccc(-c2cc(C(=O)NCCc3ccc(S(N)(=O)=O)cc3)c3ccccc3n2)cc1	–	inconclusive [inhibitor, partial curve]
COc1ccc(CNC(=O)CN(Cc2ccc(F)cc2)C(=O)c2csnn2)cc1	–	inconclusive [inhibitor, partial curve]
COc1ccc(CCNC(=O)CSc2nnnn2-c2ccccc2)cc1	–	active: 1.58 µM
CCOC(=O)c1cnc(SCC(=O)Nc2ccc3c(c2)OCCO3)nc1N	–	inconclusive [inhibitor, single point]
CCOC(=O)Cc1csc(NC(=O)c2c(-c3ccccc3)noc2C)n1	inactive: 2.26%	–
COc1ccc(Nc2ncnc3c2cnn3Cc2ccccc2)cc1	–	active: 8.91 µM
CCCCn1c(=O)c(CCC(=O)OCC(=O)NC(C)c2ccccc2)nc2ccccc21 (stereo unspecified)	–	inconclusive [inhibitor, single point]
N#Cc1c(C(F)(F)F)cc(-c2ccc(F)cc2)nc1SCC(=O)O	inactive: -3.73%	–
Cc1c2c(nc3ccccc13)CCC(C)C2 (stereo unspecified)	–	inconclusive [inhibitor, single point]
CC(=O)N/C(=C/c1ccccc1)C(=O)N1CCCCC1	–	inconclusive [inhibitor, single point]
Cc1cc(C(=O)NCC2CCCO2)n(-c2ccccc2)n1 (stereo unspecified)	–	inconclusive [inhibitor, single point]
Cc1ccc(NC(=O)CSc2nnc(-c3cccnc3)s2)cc1	–	inconclusive [inhibitor, single point]
CCc1c(C)sc(NC(=S)Nc2cccnc2)c1C(=O)OC	–	active: 9.46 µM
CCOC(=O)c1cc(C#N)c(Nc2ccccc2OC)nc1C(F)(F)F	–	inconclusive [inhibitor, single point]
O=C(CSc1nc(Cc2ccccc2)nc2ccccc12)c1ccc2c(c1)OCCO2	–	inconclusive [inhibitor, full curve]
O=C(CNC(=O)c1ccco1)NCC(=O)OC(C(=O)c1ccccc1)c1ccc(Cl)cc1 (stereo unspecified)	–	inconclusive [inhibitor, single point]
CCOc1nc(SC(C(C)=O)C(=O)Nc2ccccc2)nc(N(C)C)n1 (stereo unspecified)	inactive: -8.53%	–
Cc1cccc(N2CCN(C(=O)Cn3c(=O)[nH]c4ccsc4c3=O)CC2C)c1 (stereo unspecified)	–	inconclusive [inhibitor, single point]
Fc1ccccc1OCCSc1nnnn1-c1ccccc1	–	active: 1.89 µM
Nc1[nH]nc2nc3ccccc3nc12	inactive: -0.27%	–

Structure (SMILES)	activity, negative = inhibition	Potency
Fc1ccc2nc(C3CCCCN3Cc3nc(CC4CC4)no3)[nH]c2c1 (stereo unspecified)	–	inconclusive [inhibitor, partial curve]
Nc1cc(N)nc(SCCOc2ccccc2F)n1	inactive: 1.51%	–
Cc1ccc(NC(=O)COC(=O)CN2C(=O)c3ccccc3C2=O)cc1S(=O)(=O)N(C)C	–	inconclusive [inhibitor, single point]
COc1cc(OC)c(OC)cc1/C=C/c1cc(C(=O)O)c2ccccc2n1	–	inconclusive [inhibitor, single point]
C=C(C)C(=O)NNc1ccccc1	–	active: 22.4 µM
CC(NC(=O)c1ccc(CS(=O)(=O)c2ccc(Cl)cc2)o1)c1ccc2c(c1)OCCO2 (stereo unspecified)	–	inconclusive [inhibitor, single point]
O=C(c1ccco1)N1N=C(c2cccs2)CC1c1ccco1 (stereo unspecified)	inactive: 6.54%	–
CCn1c(=O)c([N+](=O)[O-])c(NCCN(C)C)c2ccccc21	–	active: 11.2 µM
CCOc1ccc(-c2nnc(N3CCCCC3)c3ccccc23)cc1	–	inconclusive [inhibitor, single point]
COc1ccc(C(=O)Cn2c3ccccc3n3nc(CCC(=O)O)c(=O)nc23)cc1OC	–	inconclusive [inhibitor, single point]
CC(=O)c1cccc(Nc2nc(=O)c3cccnc3s2)c1	–	inconclusive [inhibitor, partial curve]
CC(C)C(C)(C#N)NC(=O)CSc1nc2scc(-c3ccco3)c2c(=O)n1-c1ccccc1 (stereo unspecified)	–	active: 11.2 µM
CCCCNC(=O)c1onc(CSc2cccc(C)c2)c1C(=O)O	inactive: 2.72%	–
Cc1cc(C(F)(F)F)c2c(n1)sc1c(O)cc(=O)[nH]c12	inactive: -0.734%	–
CCc1ccc(NC(=S)Nc2cccc3cnccc23)cc1	–	active: 11.2 µM
O=C(O)COCc1nc2ccccc2[nH]1	inactive: -5.76%	–
Cn1nc(C(F)(F)F)c(/C=N/OC(=O)c2ccccc2Cl)c1SCc1ccccc1Cl	inactive: 0.413%	–
O=c1c(-c2ccccc2)[n+]([O-])c2ccccc2n1O	inactive: -4.69%	–
COC(=O)C(/C=N/OCc1ccc([N+](=O)[O-])cc1)NC(=O)c1cccc(Cl)c1 (stereo unspecified)	–	active: 1.41 µM
COc1ccc(C)cc1NC(=O)c1nnn(Cc2cccc(C(F)(F)F)c2)c1N	–	inconclusive [inhibitor, partial curve]
COc1ccc(CCNC(=O)CSc2nc(O)c(CCC(C)C)c(=O)[nH]2)cc1OC	–	inconclusive [inhibitor, single point]
Cn1cccc1C(=O)N1CCC2(CC1)CN(c1ccccn1)C2	–	inconclusive [inhibitor, partial curve]
CN(C)c1ncc2nc(-c3ccc(Cl)cc3)c(=O)n(C3CC3)c2n1	–	inconclusive [inhibitor, partial curve]
COCCNC(=O)CCCn1c(=O)c2cc(OC)c(OC)cc2n(CC(=O)NCCC2=CCCCC2)c1=O	–	inconclusive [inhibitor, partial curve]
COc1ccccc1N1CCN(C(=O)/C=C/c2cccc([N+](=O)[O-])c2)CC1	–	active: 14.1 µM
Cc1cc(Cl)ccc1OCCCC(=O)N1CCCCC1	inactive: -13.7%	–

Structure (SMILES)	activity, negative = inhibition	Potency
Cc1ccc(N/N=C2\CC(=O)c3ccccc32)cc1Cl	–	active: 25.1 µM
COc1ccc2c(-c3cccnc3)cc(=O)[nH]c2c1	–	inconclusive [inhibitor, single point]
FC(F)Oc1ccc(NC(=S)NCc2ccccc2)cc1	inactive: 2.34%	–
COc1cc(NC(=O)CN2C(=O)C(c3ccccc3)=NC23CCCCCC3)cc(OC)c1	–	inconclusive [inhibitor, partial curve, poor fit]
Cc1cc(N2CCC(C(=O)N3CCN(c4cccc(C)c4C)CC3)CC2)n2ncnc2n1	–	active: 3.98 µM
Oc1ccc2ccccc2c1CN1CCCC1	–	inconclusive [inhibitor, single point]
CCC(Sc1nc2ccccc2c(=O)n1CC1CCCO1)C(=O)NCc1cccnc1 (stereo unspecified)	inactive: 2.82%	–
O=Cc1ccc(Sc2nnc(-c3ccccc3)o2)c([N+](=O)[O-])c1	–	active: 7.94 µM
O=C(CS(=O)Cc1ccccc1Cl)Nc1ccccc1Cl (stereo unspecified)	inactive: 3.96%	–
CCC(=O)N(CC)c1nc(-c2ccc(OC)cc2)cs1	–	inconclusive [inhibitor, single point]
Cc1ccccc1NC(=S)NNC(=O)c1cccc(Br)c1	–	inconclusive [inhibitor, single point]
O=C(CN1C(=O)c2ccccc2C1=O)OCC(=O)N1CCc2ccccc2C1	–	inconclusive [inhibitor, single point]
N/C(=N/OS(=O)(=O)c1ccc([N+](=O)[O-])cc1)c1ccncc1	–	active: 31.6 µM
CC(/C=C1\SC(=S)N(NC(=O)c2cccc(O)c2)C1=O)=C\c1ccccc1	–	inconclusive [inhibitor, partial curve]
COC(=O)c1ccc(/C=C2/SC(=S)N(CCCC(=O)Nc3ccccn3)C2=O)cc1	–	inconclusive [inhibitor, partial curve, poor fit]
CCCCCCCCCCCCCCCCCCOC[C@H](COP(=O)([O-])OCC[N+](C)(C)C)OC	–	inactive
CCC(=O)n1nc(-c2ccco2)nc1N	–	inconclusive [inhibitor, single point]
Cc1ccc2cc(CN(Cc3nnnn3Cc3ccco3)CC3CCCO3)c(=O)[nH]c2c1C (stereo unspecified)	–	active: 1.78 µM
Cc1nc2ccccc2cc1O	–	inconclusive [inhibitor, partial curve]
O=C(COC(=O)Cc1ccc(Cl)cc1Cl)NCCC1=CCCCC1	–	inconclusive [inhibitor, single point]
CCC(CO)NS(=O)(=O)c1cc(-c2nn(C)c(=O)c3ccccc23)ccc1C (stereo unspecified)	inactive: 6.78%	–
CC(C)NC(=O)COC(=O)c1ccc(Oc2ccccc2)cc1	–	inconclusive [inhibitor, single point]
O=C(O)c1cc(NC(=S)NC(=O)C(c2ccccc2)c2ccccc2)ccc1Cl	–	inconclusive [inhibitor, single point]
CCc1ccc(NC(=O)Cn2c3[n+](c4c(F)c(F)ccc42)CCCCC3)cc1	–	active: 10 µM
